# Laboratory results published in article PMC12820563, “FoxP3 forms a head-to-head dimer in vivo and stabilizes its multimerization on adjacent microsatellites”.
# This is one part of the list.
# Molecular target: T1, MBP-FoxP1dN (Mus musculus, UniProt P58462 326-579)
# T1 sequence: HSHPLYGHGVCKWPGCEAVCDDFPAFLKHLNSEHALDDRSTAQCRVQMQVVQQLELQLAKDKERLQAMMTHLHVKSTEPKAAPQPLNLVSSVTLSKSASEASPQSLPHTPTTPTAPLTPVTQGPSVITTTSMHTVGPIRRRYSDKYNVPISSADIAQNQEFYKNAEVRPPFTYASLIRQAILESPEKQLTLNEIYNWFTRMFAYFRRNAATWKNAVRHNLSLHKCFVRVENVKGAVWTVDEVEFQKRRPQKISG
# Experiment: PD-seq (MBP pull-down with sequencing); 20 mM Tris-HCl pH 7.5, 100 mM NaCl, 1.5 mM MgCl2, 0.4 uM protein, 0.1 uM dsDNA library, 30 min, room temperature, amylose pull-down; high values mean tight binding
# Details: protein: recombinant; tags: His6-MBP; chain copies: 2; dsDNA, one strand shown
# Outline: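 Binding is reads-per-million enrichment of pull-down over input, with replicates pooled. It comes from 30 min room-temperature incubation in Tris pH 7.5 buffer with NaCl and MgCl2 of 0.4 µM His6-MBP-tagged, N-terminally truncated mouse FoxP3 or FoxP1 fragment from E. coli with 0.1 µM Klenow-filled degenerate double-stranded DNA library, followed by amylose resin capture, three washes and Illumina sequencing of the released DNA.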
row,Sequence,binding signal
1,GATGATTGTTCTCCCAGCTGATGAATTAATCGGGTCGAGTAAACAAATTTTCCTAATCTTTCTGTTCAAGCGCCATCTAC,0.746 RPM ratio (pull-down/input)
2,GATGATTGTTCTCCCAGCTGATGAATTCGTTAGCTCGAGTAAACAAATTTTCCTAATCTTTCTGTTCAAGCGCCATCTAC,0.868 RPM ratio (pull-down/input)
3,GATGATTGTTCTCCCAGCTGATGAATTCTGAGTGTCGAGTAAACAAATTTTCCTAATCTTTCTGTTCAAGCGCCATCTAC,0.844 RPM ratio (pull-down/input)
4,GATGATTGTTCTCCCAGCTGATGAATTAGCGGCCTCGAGTAAACAAATTTTCCTAATCTTTCTGTTCAAGCGCCATCTAC,0.849 RPM ratio (pull-down/input)
5,GATGATTGTTCTCCCAGCTGATGAATTACCCACGTCGAGTAAACAAATTTTCCTAATCTTTCTGTTCAAGCGCCATCTAC,0.972 RPM ratio (pull-down/input)
6,GATGATTGTTCTCCCAGCTGATGAATTCGAAATGTCGAGTAAACAAATTTTCCTAATCTTTCTGTTCAAGCGCCATCTAC,0.844 RPM ratio (pull-down/input)
7,GATGATTGTTCTCCCAGCTGATGAATTAACATCTTCGAGTAAACAAATTTTCCTAATCTTTCTGTTCAAGCGCCATCTAC,1.06 RPM ratio (pull-down/input)
8,GATGATTGTTCTCCCAGCTGATGAATTTAGAAGTTCGAGTAAACAAATTTTCCTAATCTTTCTGTTCAAGCGCCATCTAC,0.9 RPM ratio (pull-down/input)
9,GATGATTGTTCTCCCAGCTGATGAATTTGTCGCGTCGAGTAAACAAATTTTCCTAATCTTTCTGTTCAAGCGCCATCTAC,1.07 RPM ratio (pull-down/input)
10,GATGATTGTTCTCCCAGCTGATGAATTCGGTACGTCGAGTAAACAAATTTTCCTAATCTTTCTGTTCAAGCGCCATCTAC,0.885 RPM ratio (pull-down/input)
11,GATGATTGTTCTCCCAGCTGATGAATTACCTATCTCGAGTAAACAAATTTTCCTAATCTTTCTGTTCAAGCGCCATCTAC,0.95 RPM ratio (pull-down/input)
12,GATGATTGTTCTCCCAGCTGATGAATTTATCTTTTCGAGTAAACAAATTTTCCTAATCTTTCTGTTCAAGCGCCATCTAC,1.32 RPM ratio (pull-down/input)
13,GATGATTGTTCTCCCAGCTGATGAATTTAAGATCTCGAGTAAACAAATTTTCCTAATCTTTCTGTTCAAGCGCCATCTAC,0.801 RPM ratio (pull-down/input)
14,GATGATTGTTCTCCCAGCTGATGAATTAGTGCTGTCGAGTAAACAAATTTTCCTAATCTTTCTGTTCAAGCGCCATCTAC,1.18 RPM ratio (pull-down/input)
15,GATGATTGTTCTCCCAGCTGATGAATTAAAACCATCGAGTAAACAAATTTTCCTAATCTTTCTGTTCAAGCGCCATCTAC,1.07 RPM ratio (pull-down/input)
16,GATGATTGTTCTCCCAGCTGATGAATTCTACAAGTCGAGTAAACAAATTTTCCTAATCTTTCTGTTCAAGCGCCATCTAC,0.831 RPM ratio (pull-down/input)

row,Sequence,binding signal
1,GATGATTGTTCTCCCAGCTGATGAATTAATACTGTCGAGTAAACAAATTTTCCTAATCTTTCTGTTCAAGCGCCATCTAC,1.05 RPM ratio (pull-down/input)
2,GATGATTGTTCTCCCAGCTGATGAATTGTTGCCTTCGAGTAAACAAATTTTCCTAATCTTTCTGTTCAAGCGCCATCTAC,1.49 RPM ratio (pull-down/input)
3,GATGATTGTTCTCCCAGCTGATGAATTTAGGGTGTCGAGTAAACAAATTTTCCTAATCTTTCTGTTCAAGCGCCATCTAC,0.941 RPM ratio (pull-down/input)
4,GATGATTGTTCTCCCAGCTGATGAATTGTGTAGATCGAGTAAACAAATTTTCCTAATCTTTCTGTTCAAGCGCCATCTAC,1.29 RPM ratio (pull-down/input)
5,GATGATTGTTCTCCCAGCTGATGAATTGTGCTCCTCGAGTAAACAAATTTTCCTAATCTTTCTGTTCAAGCGCCATCTAC,0.997 RPM ratio (pull-down/input)
6,GATGATTGTTCTCCCAGCTGATGAATTTGGTTTTTCGAGTAAACAAATTTTCCTAATCTTTCTGTTCAAGCGCCATCTAC,0.945 RPM ratio (pull-down/input)
7,GATGATTGTTCTCCCAGCTGATGAATTTGGAATATCGAGTAAACAAATTTTCCTAATCTTTCTGTTCAAGCGCCATCTAC,1.01 RPM ratio (pull-down/input)
8,GATGATTGTTCTCCCAGCTGATGAATTAAGGACATCGAGTAAACAAATTTTCCTAATCTTTCTGTTCAAGCGCCATCTAC,1.06 RPM ratio (pull-down/input)
9,GATGATTGTTCTCCCAGCTGATGAATTATGCTGATCGAGTAAACAAATTTTCCTAATCTTTCTGTTCAAGCGCCATCTAC,1.19 RPM ratio (pull-down/input)
10,GATGATTGTTCTCCCAGCTGATGAATTGCATGTTTCGAGTAAACAAATTTTCCTAATCTTTCTGTTCAAGCGCCATCTAC,1.44 RPM ratio (pull-down/input)
11,GATGATTGTTCTCCCAGCTGATGAATTACTGAGATCGAGTAAACAAATTTTCCTAATCTTTCTGTTCAAGCGCCATCTAC,0.956 RPM ratio (pull-down/input)
12,GATGATTGTTCTCCCAGCTGATGAATTGTTGCAGTCGAGTAAACAAATTTTCCTAATCTTTCTGTTCAAGCGCCATCTAC,1.51 RPM ratio (pull-down/input)
13,GATGATTGTTCTCCCAGCTGATGAATTTTTTTTATCGAGTAAACAAATTTTCCTAATCTTTCTGTTCAAGCGCCATCTAC,0.958 RPM ratio (pull-down/input)
14,GATGATTGTTCTCCCAGCTGATGAATTGCTGGACTCGAGTAAACAAATTTTCCTAATCTTTCTGTTCAAGCGCCATCTAC,0.876 RPM ratio (pull-down/input)
15,GATGATTGTTCTCCCAGCTGATGAATTCCTTTGATCGAGTAAACAAATTTTCCTAATCTTTCTGTTCAAGCGCCATCTAC,0.831 RPM ratio (pull-down/input)
